In PubChem BioAssay AID1030 (National Center for Advancing Translational Sciences (NCATS), 2008):
Screen size: about 220,000 compounds; about 16,000 (7.3%) were called active. This list was built around the results that the source calls inconclusive (neither active nor inactive); the mix of calls is not that of the screen. Calls come from the whole dose curve; as a rule, active = well fitted inhibition curve with a large enough effect (not every such curve was filed as active); inconclusive = small, poorly fitted or top-dose-only effect, or another doubt; inactive = no such curve, though single readings can be large or run the other way. No potency is given beside an inconclusive call; the fits are too rough.

Target: Aldehyde dehydrogenase 1A1 (Homo sapiens) (UniProt P00352)
Assay: qHTS Assay for Inhibitors of Aldehyde Dehydrogenase 1 (ALDH1A1)
Conditions: Purified ALDH1A1, NADH fluorescence, propionaldehyde substrate; series mostly up to 75.3 µM
Potency is the fitted concentration of half-maximal effect; tags give direction and shape of the fitted curve.

Chain of UniProt P00352 (P00352 whole entry, looked up): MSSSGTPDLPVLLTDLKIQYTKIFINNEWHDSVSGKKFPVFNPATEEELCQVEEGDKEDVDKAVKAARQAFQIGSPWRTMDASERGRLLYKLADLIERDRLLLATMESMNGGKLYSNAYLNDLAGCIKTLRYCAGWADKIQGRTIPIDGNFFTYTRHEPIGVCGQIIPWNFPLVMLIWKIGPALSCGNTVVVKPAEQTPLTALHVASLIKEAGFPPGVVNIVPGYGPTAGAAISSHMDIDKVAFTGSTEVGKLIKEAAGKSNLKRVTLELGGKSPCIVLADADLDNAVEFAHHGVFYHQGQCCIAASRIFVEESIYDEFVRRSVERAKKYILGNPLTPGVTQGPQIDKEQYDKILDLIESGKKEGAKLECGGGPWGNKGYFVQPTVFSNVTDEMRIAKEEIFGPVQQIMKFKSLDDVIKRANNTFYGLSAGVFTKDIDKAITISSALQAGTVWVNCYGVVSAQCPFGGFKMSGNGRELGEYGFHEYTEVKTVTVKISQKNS

Compound	Potency
C[C@@H]1CC[C@]2(C(=O)O)CC[C@]3(C)C(=CCC4[C@@]5(C)C[C@@H](O)[C@H](O)[C@@](C)(CO)C5CC[C@]43C)C2[C@H]1C (some centres undefined)	inactive
COc1ccc(C(=O)C(C)Oc2cccc(NC(=O)c3cccc([N+](=O)[O-])c3)c2)cc1 (centres undefined)	inactive
CC1(C)Cc2c(c(-c3ccco3)nc3sc4c(NCC5CCCO5)ncnc4c23)CO1 (centres undefined)	inconclusive [inhibitor, partial curve]
CN(C(=O)c1ccccc1C(=O)OCC(=O)NCc1ccccc1)C1CCCCC1	inactive
Cc1cc(C)c(O)c(N)c1	active: 25.1 µM
Cc1ccc(SCCCCN2CCNCC2)cc1	inconclusive [inhibitor, partial curve]
CC(C)C(=O)Nc1sc2c(c1-c1nc3ccccc3[nH]1)CCCC2	inconclusive [inhibitor, single point]
CC1=CC(C)(C)N(C(=O)CNC2CCCCC2)c2cc(C)ccc21	inactive
COc1ccc(N2CCN(C(=O)c3oc4ccccc4c3C)CC2)cc1	inactive
CN1CCN(c2ccc(Cl)cc2NS(=O)(=O)c2ccccc2Cl)CC1	active: 14.1 µM
Cc1ccc(NC(=O)CSc2nc3[nH]ncc3c(=O)[nH]2)c(C)c1	inactive
N#Cc1c(NC(=O)C2C3C=CC(C3)C2C(=O)O)sc2c1CCCCC2 (centres undefined)	active: 12.6 µM
Cc1ccc(-c2n[nH]c(=O)c3ccccc23)cc1S(=O)(=O)NCCO	inactive
COc1ccc(C(=O)/C=C\c2ccc(NC(=O)c3cccs3)cc2)cc1	inconclusive [inhibitor, single point]
Cc1ccc2cc(C(c3nnnn3Cc3ccccc3)N3CCc4ccccc43)c(=O)[nH]c2c1 (centres undefined)	active: 17.8 µM
O=C(c1ccc(Cl)cc1)N1CCCCC(Cl)C1=O (centres undefined)	inconclusive [inhibitor, partial curve]
Cc1ccc(NC(=O)C(NC2CCCc3ccccc32)c2ccccc2)cc1Cl (centres undefined)	active: 14.1 µM
O=C(COS(=O)c1ccccc1)Nc1cc(Cl)ccc1N1CCOCC1 (centres undefined)	active: 1.26 µM
Cc1ccc(S(=O)(=O)NN=C2C3CC4CC(C3)CC2C4)cc1[N+](=O)[O-]	active: 17.8 µM
CCOc1ccc2[nH]c(=O)c(CN(Cc3nnnn3CCc3ccccc3)CC3CCCO3)cc2c1 (centres undefined)	inconclusive [inhibitor, single point]
CCOc1ccc(-c2nc(C#N)c(N3CCCCCC3)o2)cc1	inconclusive [inhibitor, partial curve]
COc1ccc2c(c1)c(CCN1C(=O)c3ccccc3C1=O)cn2C(=O)c1ccco1	inconclusive [inhibitor, partial curve]
Cc1ccc(S(=O)(=O)NC(=S)NC2CCCCC2)cc1	active: 35.5 µM
Cc1nc2c(C)cccn2c1/C(O)=C1\C(=O)C(=O)N(CCN2CCOCC2)C1c1cccs1 (centres undefined)	inconclusive [inhibitor, single point]
N#CC(C#SN)=C1CCCCC1	inconclusive [inhibitor, single point]

Compound	Potency
CCOc1ccc(S(=O)(=O)NCc2ccc(OC)cc2)c2cccnc12	inconclusive [inhibitor, partial curve]
CN(C)S(=O)(=O)c1cccc(NC(=O)COC(=O)/C=C/c2ccco2)c1	inactive
NCCc1nnc(SCc2ccccc2F)o1	inactive
CCOc1ccc(-c2nc(C#N)c(N3CCN(CC)CC3)o2)cc1	inconclusive [inhibitor, single point]
CN1CCN(c2ccc(NC(=O)CN3CCOCC3)cc2F)CC1	inactive
COc1ccc(-c2ccc(-c3cc(=O)oc4cc(OC)c(OC)c(OC)c34)cc2)cc1	inactive
CCCn1c(C)nc2c(NCCN3CCCC3)nc(C)nc21	inactive
NC(=O)c1ccc(-n2nnnc2SCc2ccc(F)cc2)cc1	inactive
CCOC(=O)C1C(=O)CC(C)(O)C(C(=O)OCC)C1c1ccc(F)cc1 (centres undefined)	inactive
CN(CC(CC(=O)Nc1nncs1)c1ccccc1)S(=O)(=O)c1ccccc1 (centres undefined)	active: 8.91 µM
Cc1ccnc(NS(=O)(=O)c2ccc(NS(=O)(=O)c3ccccc3)cc2)n1	inconclusive [inhibitor, single point]
CCC(=O)N1c2ccc(C)cc2C2=NNC(=S)NC21O (centres undefined)	inactive
O=C(Nc1sc2c(c1C(=O)O)CCCCC2)c1cccs1	inconclusive [inhibitor, single point]
COc1ccc(Sc2nc(-c3ccccc3)ncc2OC)cc1	inconclusive [inhibitor, single point]
Cc1ccc(S(=O)(=O)N2CCCC(C(=O)NCCC3=CCCCC3)C2)cc1 (centres undefined)	inactive
O=c1[nH]c(SCc2cccc(Cl)c2)nc2[nH]ncc12	inactive
C=CCN1C(=O)C(CC(=O)Nc2ccc(OCCC)cc2)N(CCCN2CCN(Cc3ccccc3)CC2)C1=S (centres undefined)	inconclusive [inhibitor, single point]
COc1ccc(C(=O)/C=C/Nc2ccccn2)c(OC)c1	inconclusive [inhibitor, partial curve]
O=C(Nc1ccc2c(c1)nc1n2CCN(Cc2ccccc2)C1)NC1CCCCC1	inconclusive [inhibitor, partial curve]
Cc1ccccc1NC(=O)N1CCN(C/C=C/c2ccccc2)CC1	inactive
COc1ccc(-c2nc3cnc(N4CCOCC4)nc3n(-c3ccc(OC)cc3)c2=O)cc1	inconclusive [inhibitor, partial curve]
CC(=O)Nc1ccc(-c2cc(-c3ccc(NC(C)=O)cc3)nc(-c3ccc(NC(C)=O)cc3)n2)cc1	inconclusive [inhibitor, partial curve]
O=C(CN1CCN(CC(=O)c2ccc(F)cc2)CC1)Nc1ccccc1Cl	active: 2.24 µM
c1nnc(NC2=NCCCCC2)s1	inactive
Nc1ccn([C@@H]2O[C@H](CO)[C@@H](O)[C@H]2O)c(=O)n1	inactive

Compound	Potency
O=C(Cc1cccs1)Nc1ccc(-c2nnc(-c3ccco3)o2)cc1	inconclusive [inhibitor, partial curve]
C=CCn1c(SCc2nc3ccccc3[nH]2)nnc1-c1cccc(OC)c1	inactive
CCCCc1nc(N2CCOCC2)c(C#N)c2c1COC(C)(C)C2	inconclusive [inhibitor, partial curve]
COc1cccc(Cn2c(=O)cnc3cnc(N4CCOCC4)nc32)c1	inconclusive [inhibitor, single point]
CC[C@H](C)C(=O)O[C@H]1CCC=C2C=C[C@H](C)[C@H](CC[C@@H]3C[C@H](O)CC(=O)O3)C21 (some centres undefined)	inactive
O=C(CC1C(=O)NCCN1C/C=C/c1ccccc1)NCCCC1CCCC1 (centres undefined)	inconclusive [inhibitor, single point]
CC(C)(CNS(=O)(=O)c1ccc2c(c1)OCCO2)N1CCOCC1	inconclusive [inhibitor, single point]
Cc1ccc2cc(/C=N/NC(=O)[C@H]3C[C@@H]3c3ccccc3)c(Cl)nc2c1	inconclusive [inhibitor, single point]
COc1cc(C2NC(=O)c3ccccc3O2)cc(OC)c1OC (centres undefined)	inconclusive [inhibitor, partial curve]
COC(=O)c1scc(C)c1N/N=C(\C)c1cc(F)c(Cl)cc1F	inconclusive [inhibitor, single point]
CCC(C)NCC(=O)Nc1ccc(-c2nc3cc(NC(=O)CNC(C)CC)ccc3o2)cc1 (centres undefined)	inconclusive [inhibitor, partial curve]
CCC(=O)CCC(=O)c1ccc2ccccc2c1	inconclusive [inhibitor, single point]
COc1ccc(OCC(=O)NNC(=O)C(=O)N2CCCC2)cc1	inactive
CCCOc1ccc(CCc2n[nH]c(=S)n2Cc2ccccc2)cc1	inconclusive [inhibitor, single point]
O=C(c1ccco1)N1CCCC(c2nc(-c3ccc(S(=O)(=O)NCc4ccccc4)cc3)no2)C1 (centres undefined)	inconclusive [inhibitor, single point]
COc1ccc(N2C(=O)CC(N(CCc3ccc(OC)c(OC)c3)C(=S)Nc3ccccc3)C2=O)cc1 (centres undefined)	inactive
CN(C)CC(=O)c1ccc(-c2ccccc2)cc1	inconclusive [inhibitor, partial curve]
CCCNC(=O)OC[C@H]1O[C@H](CCO/N=C/[C@@H](NS(=O)(=O)c2ccc(C)cc2)[C@H](C)/C=C/CC(=O)OC)C=C[C@@H]1Oc1ccc(OC)cc1	inconclusive [inhibitor, partial curve]
O=C1NC(=Nc2ccc(F)cc2)CS1	inconclusive [inhibitor, single point]
O=C(NCCNC1CCC(c2ccccc2)CC1)c1ccc(F)cc1 (centres undefined)	inconclusive [inhibitor, single point]
O=C(c1cccc(F)c1)N1CCC2(CC1)CCN(c1ccccn1)CC2	inconclusive [inhibitor, single point]
O=C(Nc1cccc(O)c1)c1cccc(S(=O)(=O)N2CCCC2)c1	inactive
COCCn1c(=O)c(-c2ccc(Cl)cc2)nc2cnc(Oc3ccc(OC)cc3)nc21	inconclusive [inhibitor, full curve]
COc1ccc(C(NC(=O)c2ccc(F)cc2)c2ccccc2)cc1 (centres undefined)	active: 22.4 µM
